# Laboratory results published in PMC4336329 (PLoS ONE, 2015).
# The campaign covered roughly 310,000 compounds. About 14,000 (4.5%) showed an effect of 50% or more. Effects have a minus sign here. The list shows a part of the results.
# Molecular target: human ether-à-go-go-related gene (hERG) potassium channel (human, UniProt Q12809)
# Experiment: primary screen, population patch clamp on CHO cells stably expressing hERG
# 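Further: peak tail current of the secondary pulse compared with the same well before compound.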
# Chain of human ether-à-go-go-related gene (hERG) potassium channel (Q12809 whole entry, looked up): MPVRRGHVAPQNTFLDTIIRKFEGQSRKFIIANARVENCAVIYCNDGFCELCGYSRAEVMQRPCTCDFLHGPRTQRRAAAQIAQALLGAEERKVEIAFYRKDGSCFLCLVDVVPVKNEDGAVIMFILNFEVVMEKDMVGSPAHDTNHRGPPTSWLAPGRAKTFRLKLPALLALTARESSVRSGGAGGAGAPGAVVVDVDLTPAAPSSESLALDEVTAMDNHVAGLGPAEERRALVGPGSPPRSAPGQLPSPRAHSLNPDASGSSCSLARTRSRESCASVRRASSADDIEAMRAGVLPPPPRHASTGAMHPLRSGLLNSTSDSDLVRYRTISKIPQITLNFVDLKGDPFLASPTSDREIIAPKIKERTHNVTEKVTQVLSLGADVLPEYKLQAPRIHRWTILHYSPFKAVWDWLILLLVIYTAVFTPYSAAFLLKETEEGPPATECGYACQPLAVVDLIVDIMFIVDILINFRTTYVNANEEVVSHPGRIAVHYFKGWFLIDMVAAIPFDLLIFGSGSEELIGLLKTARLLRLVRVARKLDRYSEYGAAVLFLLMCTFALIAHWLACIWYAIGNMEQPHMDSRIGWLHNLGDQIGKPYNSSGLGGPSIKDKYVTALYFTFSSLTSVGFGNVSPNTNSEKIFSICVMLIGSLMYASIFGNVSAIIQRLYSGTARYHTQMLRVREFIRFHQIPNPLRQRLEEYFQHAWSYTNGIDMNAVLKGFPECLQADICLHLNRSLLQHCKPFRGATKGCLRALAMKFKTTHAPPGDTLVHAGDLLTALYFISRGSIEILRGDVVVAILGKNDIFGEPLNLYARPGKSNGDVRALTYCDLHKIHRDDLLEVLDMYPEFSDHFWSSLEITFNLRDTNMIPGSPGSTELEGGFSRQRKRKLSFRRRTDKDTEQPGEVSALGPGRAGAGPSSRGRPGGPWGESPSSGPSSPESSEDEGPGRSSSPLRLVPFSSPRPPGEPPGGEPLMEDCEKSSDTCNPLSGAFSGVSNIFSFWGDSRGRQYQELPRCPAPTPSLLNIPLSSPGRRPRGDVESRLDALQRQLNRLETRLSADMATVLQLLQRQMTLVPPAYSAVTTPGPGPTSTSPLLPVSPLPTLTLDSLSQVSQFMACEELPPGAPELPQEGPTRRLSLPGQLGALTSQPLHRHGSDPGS
row,Compound,"hERG current change (%, negative = inhibition) at 10uM [%]"
1,CCN(CC)S(=O)(=O)c1ccc(Cc2ncc(C(F)(F)F)cc2Cl)s1,-7.16
2,O=C(CSCc1ccc(F)cc1)NCc1ccco1,14
3,CCCCCCC(C)n1[nH]c(=O)c2c(C)cc(C)nc21 (centres unmarked),-10.9
4,CC(C)Oc1ccc(C(CC(=O)NCCCN(C)C)c2ccc(F)cc2)cc1 (centres unmarked),-57.1
5,CCC(=O)Nc1ccc(C(=O)N/N=C/c2cc(Br)c(OC)cc2OC)cc1,12.9
6,CCOc1ccc2ccc(OCC)c(/C=N/n3cnnc3)c2c1,-14.8
7,N#Cc1c(NC(=O)Cn2c(=O)oc3ccccc32)oc(-c2ccccc2)c1-c1ccccc1,23.3
8,COCCn1c(NCc2ccco2)nc2c1c(=O)[nH]c(=O)n2C,15.3
9,O=C(NCC1CCCO1)C(=O)NCC(c1ccco1)N1CCN(c2ccccc2F)CC1 (centres unmarked),-2.95
10,CC1(C)CC2CC(C)(CN2S(=O)(=O)c2ccc(N)cc2)C1 (centres unmarked),-17.2
11,Cc1cc(C)n2nc(SCCOc3ccccc3F)nc2n1,-22.7
12,O=C(O[C@H]1[C@H](Cc2ccccc2)NS(=O)(=O)[C@H]2C[C@@H]3C=C[C@]12O3)c1ccc([N+](=O)[O-])cc1,0.543
13,COc1ccc(-c2noc(CN(C)CCC3CCCCO3)n2)cc1 (centres unmarked),5.66
14,O=C(O)Cc1c[nH]c2ccccc12,16.1
15,COCCOC(=O)C1=C(C)NC(=O)NC1c1c(Cl)nc2c(C)cccn2c1=O (centres unmarked),19.4
16,Cc1ccc2c(CC(=O)Nc3nc(C)cs3)coc2c1,1.85
17,O=C(Nc1ccc(Cl)cc1)NC1CCCCNC1=O (centres unmarked),-5.3
18,COc1ccc2nc(NC(=O)c3ccccc3-c3ccccc3C(=O)O)sc2c1,21.9
19,O=C(c1cccc(COc2cccc3ccccc23)c1)N1CCCC1,-4.59
20,COc1cccc(C(=O)NCc2ccc(-c3nc4ccccc4s3)cc2)c1,21.7
21,COc1ccc(C2/C(=C(/O)c3ccc4c(c3)CC(C)O4)C(=O)C(=O)N2CCCn2ccnc2)cc1 (centres unmarked),15.5
22,O=c1c2ccccc2cnn1Cc1n[nH]c(=S)n1-c1ccc(F)c(Cl)c1,14.4

row,Compound,"hERG current change (%, negative = inhibition) at 10uM [%]"
1,CCN(C(=O)CSc1nnc(-c2ccc(OC(F)F)cc2)n1N)C1CCS(=O)(=O)C1 (centres unmarked),-43.3
2,O=C(NCc1ccco1)C1CCC(N2C(=O)c3ccccc3C2=O)CC1 (centres unmarked),1.59
3,CSc1ccc(C(=O)C2CCCN(C(=O)CN3CCOC3=O)C2)cc1 (centres unmarked),4.06
4,COc1ccc(-n2nc3c(c2NC(=O)c2ccco2)CS(=O)(=O)C3)cc1,-9.71
5,O=C(CC1C(=O)NCCN1C(=O)Nc1ccccc1)Nc1cc(Cl)cc(Cl)c1 (centres unmarked),7.5
6,Cn1cnnc1SCC(=O)NCc1ccccc1,18.8
7,C=C(CC)C(=O)c1ccc(OCC(=O)O)c(Cl)c1Cl,15.4
8,CNC(=O)Cn1nc(-c2ccc(C)c(S(=O)(=O)N(C)C)c2)c2ccccc2c1=O,-9.45
9,Cc1nc(-c2cn[nH]c2-c2ccc(O)cc2O)cs1,16
10,CCOC(=O)c1cnc2c(CC)cccc2c1NCCN1CCOCC1,-44.4
11,Cc1nn(-c2cc(N3CCCCC3)ccc2[N+](=O)[O-])c(=O)c2ccccc12,-15.1
12,CSc1ccccc1OCc1cc(C(=O)NCCN2CCCC(O)C2)no1 (centres unmarked),-15.1
13,COc1cccc(NC(=O)CN(C)CC(=O)Nc2ccc(Cl)cc2[N+](=O)[O-])c1,-17.5
14,Brc1cccc(Cn2c(-c3cncs3)nc3ccccc32)c1,-10.5
15,CCOC(=O)c1ccc(NC(=O)c2cc(S(=O)(=O)N3CCOCC3)ccc2O)cc1,-10.3
16,CCOC(=O)N1CCC(Nc2c(NCCCN(C)Cc3ccccc3)c(=O)c2=O)CC1,8.68
17,Cc1cc(C)c2c(-c3ccc(F)cc3)c(C#N)c(=O)n(C)c2n1,11.3
18,Cc1ccc(OCc2n[nH]c(=S)n2-c2ccc(Br)cc2)cc1,21.1
19,COc1ccc(/C=C(/NC(=O)c2ccccc2)C(=O)NC(Cc2c[nH]c3ccccc23)C(=O)O)cc1 (centres unmarked),14.5
20,CS(=O)(=O)N1CCCC(C(=O)Nc2ccc(Br)cc2F)C1 (centres unmarked),4.46
21,N#Cc1cccc(NC(=O)COC(=O)Cn2nc(-c3ccccc3)oc2=O)c1,0.738
22,COC(=O)C1=C(C(=O)OC)[C@@H]2N(C)c3ccccc3[C@@]23C[C@@H](C(=O)OC)N=C3N1,-2.81
